Test results reported in publication PMC9760738, “Pharmacokinetics, absorption, distribution, metabolism and excretion of the MEK inhibitor zapnometinib in rats” (Frontiers in Pharmacology, 2022).
“And” between values parts separate entries of the source, which are not always exact repeats. Equal values may be shown once. This continues a long series; more values of the same kind are listed elsewhere.

Assay: Excretion balance of radioactivity after single oral 30 mg/kg [14C]-zapnometinib, Sprague-Dawley rats (Group 2)
Format: in vivo, rat
Details: for Dose recovered in urine, feces and cage washings: by 24 h post dose; for Expired air: mean total
Procedure: Oral doses of [^14C]-zapnometinib were administered as a suspension in 5% DMSO (v/v), 30% PEG 400 (v/v) and 7.5% (w/v) Captisol in water at a dose level of 30 mg/kg to male and female rats by gastric intubation at a dose volume of 4 ml/kg body weight. The selected dose level (30 mg/kg) was below the no observed adverse effect level (100 mg/kg), the formulation was selected based on data obtained in other nonclinical studies. The radioactive dose administered to each animal was quantified from the weight (excretion studies only) or volume of dosing formulation given, and its mean measured radioactivity concentration. The weight of test compound administered to each rat was determined from the radioactive dose administered and the specific activity of the test material.
Total excreta from three male and three female rats were collected after single oral doses of [^14C]-zapnometinib. Urine was collected into containers cooled in solid CO2 and feces were collected separately at ambient temperature. Expired air was trapped in 1M potassium hydroxide solution. After completion of the final excreta collection, rats were killed by cervical dislocation following sedation, and the carcasses retained for analysis.
Radioactivity was measured by liquid scintillation analysis using Wallac® 1409 automatic liquid scintillation counters. Samples were prepared according to the company’s SOP (see Supplementary Methods). Briefly, replicate weighed samples were mixed with Ultima Gold™ scintillation cocktail (PerkinElmer, United States) for the measurement of radioactivity. Radioactivity in amounts less than twice that of the background concentration in the sample under investigation was below the limit of accurate quantification (BLQ). […]
For Liquid scintillation analyses, carcasses from rats (Group 2) were solubilized by digestion at ca 55 °C overnight in a solution prepared from sodium hydroxide (80 g) and Triton X-405 (100 mL) in purified water (600 mL) and methanol (300 mL). After measurement of total sample weight (as appropriate), replicate portions of diluted dose solutions (ca 0.1 mL), plasma (ca 0.05 – 0.25 mL), urine (ca 0.05 – 0.25 mL), expired air trap solution (ca 1 mL) and cage wash (ca 1 mL) were mixed directly with Ultima Gold scintillation cocktail (5 mL; 15 mL for air traps) for measurement of radioactivity concentrations. Similarly, replicate weighed portions of digested carcass solutions (ca 1 mL plus 1 mL purified water) were mixed with Ultima Gold (10 mL) scintillation cocktail for measurement of radioactivity concentrations. Feces were weighed, then homogenized to a smooth paste after the addition of an appropriate volume (approximately 1.5 volumes) of purified water and the weight of each homogenate was recorded. Replicate weighed portions of feces (ca 0.2 g) and blood cells (ca. 0.25 g) were placed on Combustocones, which were then capped with cellulose pads and burned in oxygen using […]

[1] = individual females 10F, 11F, 12F, rows in order of periods 0-24, 0-48, 0-72, 0-96, 0-120, 0-144, 0-168 h

In the case of `O=C(O)c1ccc(F)c(F)c1Nc1ccc(I)cc1Cl` [zapnometinib, 2-(2-Chloro-4-iodophenylamino)-3,4-difluorobenzoic acid], the “Cumulative excretion, urine” value (0-6 h, female, mean) was 0.36 % administered dose, the “Cumulative excretion, faeces” value (0-24 h, female, mean) was 68.51 % administered dose and the “Cumulative excretion, urine” value (0-24 h, female, mean) was 3.21 % administered dose. The “Cumulative, cage wash” value (0-24 h, female, mean) was 0.32 % administered dose, the “Cumulative, expired air” value (0-24 h, female, mean) was 0.02 % administered dose and the “Cumulative excretion, faeces” value (0-48 h, female, mean) was 90.62 % administered dose. For the same compound, the “Cumulative excretion, urine” value (0-48 h, female, mean) was 3.92 % administered dose, the “Cumulative, cage wash” value (0-48 h, female, mean) was 0.42 % administered dose and the “Cumulative, expired air” value (0-48 h, female, mean) was 0.02 % administered dose. The “Cumulative excretion, faeces” value (0-72 h, female, mean) was 93.08 % administered dose, the “Cumulative excretion, urine” value (0-72 h, female, mean) was 4.05 % administered dose and the “Cumulative, cage wash” value (0-72 h, female, mean) was 0.44 % administered dose. For the same compound, the “Cumulative, expired air” value (0-72 h, female, mean) was 0.02 % administered dose, the “Cumulative excretion, faeces” value (0-96 h, female, mean) was 93.21 % administered dose and the “Cumulative excretion, urine” value (0-96 h, female, mean) was 4.08 % administered dose. The “Cumulative, cage wash” value (0-96 h, female, mean) was 0.45 % administered dose, the “Cumulative excretion, faeces” value (0-120 h, female, mean) was 93.26 % administered dose and the “Cumulative excretion, urine” value (0-120 h, female, mean) was 4.10 % administered dose. For the same compound, the “Cumulative, cage wash” value (0-120 h, female, mean) was 0.46 % administered dose, the “Cumulative excretion, faeces” value (0-144 h, female, mean) was 93.30 % administered dose and the “Cumulative excretion, urine” value (0-144 h, female, mean) was 4.11 % administered dose. The “Cumulative, cage wash” value (0-144 h, female, mean) was 0.46 % administered dose, the “Radioactivity excreted in feces” value (0-168 h, both sexes) was ~90 % dose and the Cage wash (0-168 h, female, mean) was 0.60 % Administered dose. For the same compound, the Excretion in feces (0-168 h, female, mean) was 93.32 % Administered dose, the Excretion in urine (0-168 h, female, mean) was ~4 % Administered dose and 4.12 % Administered dose and the Cage wash (0-168 h, male, mean) was 0.22 % Administered dose. The Excretion in feces (0-168 h, male, mean) was 90.45 % Administered dose, the Excretion in urine (0-168 h, male, mean) was ~3 % Administered dose and 2.83 % Administered dose and the “Dose recovered in urine, feces and cage washings” value (females) was ~72 % dose. For the same compound, the “Dose recovered in urine, feces and cage washings” value (males) was ~82 % dose, the Expired air (female) was 0.02 % Administered dose and the Dose excreted (first 24 h post dose, males and females) was > 70 % dose. For the same compound, the “Cumulative, expired air” value (individual females 10F, 11F, 12F, periods 0-24, 0-48, 0-72 h) was 0.02 % administered dose, the “Cumulative excretion, urine” value (individual females 10F, 11F, 12F, rows in order of periods 0-6, 0-24, 0-48, 0-72, 0-96, 0-120, 0-144, 0-168 h) was 0.44 % administered dose and 0.35 % administered dose and 0.28 % administered dose and 3.09 % administered dose and 3.03 % administered dose and 3.50 % administered dose and 3.79 % administered dose and 3.70 % administered dose and 4.26 % administered dose and 3.96 % administered dose and 3.81 % administered dose and 4.37 % administered dose and 4.00 % administered dose and 3.84 % administered dose and 4.41 % administered dose and 4.02 % administered dose and 3.86 % administered dose and 4.43 % administered dose and 4.03 % administered dose and 3.87 % administered dose and 4.44 % administered dose and 4.04 % administered dose and 3.88 % administered dose and 4.45 % administered dose and the “Cumulative excretion, faeces” value [1] was 68.79 % administered dose and 74.70 % administered dose and 62.03 % administered dose and 90.11 % administered dose and 96.59 % administered dose and 85.16 % administered dose and 96.05 % administered dose and 97.23 % administered dose and 85.96 % administered dose and 96.19 % administered dose and 97.39 % administered dose and 86.06 % administered dose and 96.25 % administered dose and 97.44 % administered dose and 86.10 % administered dose and 96.29 % administered dose and 97.47 % administered dose and 86.13 % administered dose and 96.32 % administered dose and 97.49 % administered dose and 86.15 % administered dose. For the same compound, the “Cumulative, cage wash” value [1] was 0.39 % administered dose (2×) and 0.21 % administered dose and 0.35 % administered dose and 0.48 % administered dose and 0.37 % administered dose and 0.42 % administered dose (2×) and 0.50 % administered dose and 0.44 % administered dose and 0.51 % administered dose and 0.40 % administered dose (3×) and 0.45 % administered dose (2×) and 0.52 % administered dose and 0.53 % administered dose (2×) and 0.46 % administered dose and 0.85 % administered dose, the Expired air (male) was 0.02 % Administered dose and the Compound excreted (within 48 h, mainly via feces) was “more than 90%”.
